The RNAGym collection of RNA variant scans (doi:10.1093/nar/gkz1192)
Read counts are not given, so values of variants with three or more changes are uncertain.

B1: CPEB3 Ribozyme (parent)
chain: UAACAGGGGGCCACAGCAGAAGCGUUCACGUCGCAGCCCCUGUCAGAUUCUGGUGAAUCUGCGAAUUCUGCUGUAUAUCUC

Variants of: B1
Test: self-cleavage, relative activity (ratio to wild type); higher = more cleavage; in vitro, sequencing
Procedure, shortened: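 Relative activity was defined as the cleaved/total read fraction for a variant divided by the same fraction for the unmutated ribozyme. CPEB3 self-cleaving ribozyme libraries were made by rounds of error-prone PCR, barcoded, and transcribed in vitro with T7 RNA polymerase for 5 hours at 37°C, and cleavage ran through transcription plus a 15 min DNase I step before EDTA. Illumina sequencing of template-switched reverse transcripts gave the reads, and DNA sequencing mapped the barcodes. Averages come from three batches, using variants with at least 5 reads.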

Row | Variant | self-cleavage
1 | UGACAGGGGGCCACAGCAGAAGCGUUCACGUCGCAGCCCGUGCCAGAUUCUGGUGAAUCUGCGAAUUCUGCUGUAUAUCUC [A2G C40G U43C] | 0.58
2 | UGACAGGGGGCCACAGCAGAAGCGUUCACGUCGCAGCCCCUGUUAGAUUCUGAUGAUUCUGCGAAUUCUGCCGUAUAUCUC [A2G C44U G53A A57U U72C] | 0.11
3 | UGACAAGGGGCCCCAGUAGAAGCGCUCACGUCGCAGCCCCUGUCAGAUUCUGGUGAAUCUGCGAAUUCUGCUGUAUAUCUC [A2G G6A A13C C17U U25C] | 0.09
4 | UGACAAGGGGCCGCAGCAGAGGCGUUCAUGUCGCAGCCCUUGUCAGAUUCUGGUGAAUCUGCGAAUUCUGCUGUAUACCUC [A2G G6A A13G A21G C29U C40U U78C] | 0.06
5 | UGACAAGGGGCCACAGCAGAGGCGUUCACGUCGCAGCCCCUGUCAGAUCCUGGUGAAUCUGCGAAUUCUGCUGUAUAUCUC [A2G G6A A21G U49C] | 0.39
6 | UGACAUGGGGCCACAGCAGAGGCGUUCACGUCGCAGCCCCUGUCAGAUUCUGGUGAAUCUGCGAAUUCUGCUGUAUAUCUC [A2G G6U A21G] | 0.12
7 | UGACAUGGGGCCACAGCAGAAGCGCUCACGUCGCAGCCCCUGUCAGAUUCUGGUGAAUCUGCGAACUCUGCUGUAUAUCUC [A2G G6U U25C U66C] | 0.1
8 | UGACAUGGGGCCACAGCAGAAGCGUUCACGUCGCAGCCCCUGUCAGAUUCUGGUGAAUCCGCGAAUUCCGCUGUAUACCUC [A2G G6U U60C U69C U78C] | 0.22
9 | UGACAGCGGGCCACAGCAGAAGCGUUCGCGUCGCAGCCCCUGUCAGAUUCUGGUGAAUCUGCGAAUUCUGCUGUAUAUCUC [A2G G7C A28G] | 0.08
10 | UGACAGUGGGCCACAGCAGAAGCGUUCACGUCGCAGCCCCUGUCAGUUUCUGGUGGAUCAGCGAAUUCUACUGUAUAUCUC [A2G G7U A47U A56G U60A G70A] | 0.04
11 | UGACAGGAGGCCACAGCAGAAGCGUUCGCGUCGCAGCCACUGUCGGAUUCUAGUGAAUCUGCGAAUUCUGCUGUAUAUCUC [A2G G8A A28G C39A A45G G52A] | 0.05
12 | UGACAGGAGGCCACAGCAGAAGCGUUCGCGUCGCAGCCCCAGUCAGAUUCUGGUGAAUCUGCGAAUUCUGCUGUUUAUCUC [A2G G8A A28G U41A A75U] | 0.06
13 | UGACAGGAGGCCACAGCAGAAGCGUUCACGUCGCAGCCCCUGUCCGAUUCUGGUGGAUCUGCGAAUUCUGCUGUAUAUCUC [A2G G8A A45C A56G] | 0.41
14 | UGACAGGUGGCCACAGCAGGAGCGUUCACGUCGCAGCCCCUGUCAGAUUCUGGUGAAUCUGGGAAUUCUGCUGUAUAUCUG [A2G G8U A20G C62G C81G] | 0.06
15 | UGACAGGUGGCCACAGCAGAAGCGCUCACGCCGGAGCCCCUGUCAGAUUCUGGUGAAUCUGCGAAUUCUGCUGUAUAUCCC [A2G G8U U25C U31C C34G U80C] | 0.44
16 | UGACAGGGAGCCACAGCAGAAGCGUUCACGUCGCAGCCCCUGUCAGAUUCUGGUGAAUCUGCGAAUUCUGCUGUAUAUCCC [A2G G9A U80C] | 0.09
17 | UGACAGGGCGCCACAGCAGAAGCGUUCACGUCGCAGCCCCUGUCAGAUUCUGGUGAAUCUGCGAAUUCUGUUGUAUAUCUC [A2G G9C C71U] | 0.08

Row | Variant | self-cleavage
18 | UGACAGGGUGCCACAGCAGAGGCGCUCACGUCGCAGCCCCUGUCAGAUUCUGGUGUAUCUGCGAAUUCUGCUGUAAAUCUC [A2G G9U A21G U25C A56U U76A] | 0.06
19 | UGACAGGGGCCCACAGCAGAAGCGUUCACGUCGCAGCCACUGUCAGAUUCUGGUGAAUCUGCGAAAUCUGCUGUAUAUCUC [A2G G10C C39A U66A] | 0.06
20 | UGACAGGGGCCCACAGCAGAAGCGUUCACGUCGCAGCCCCUGUCAGAUCCUGGUGAAUCUGCGAAUUCCGCUGUAUAUCUC [A2G G10C U49C U69C] | 0.05
21 | UGACAGGGGGCCACAGCAUAAGCGCUCACGUCGCAGCCCCAGUCAGAUUCUGGUGAAUCUGCGAAUUCUGCUGUAUAUCUC [A2G G19U U25C U41A] | 0.07
22 | UGACAGGGGGCCACAGCAGAAGCGUUCACGUCACAGCCCCUGUCAGAUUCUGGUGAAUCUGCGAAUUUUGCUGUAUAACUC [A2G G33A C68U U78A] | 0.09
23 | UGACAGGGGGCCACAGCAGAAGCGUUCACGUCACAGCCCCGGUCAGAUUCUGGUGAAUCUGCGAAUUCUGCUGUAUACCUC [A2G G33A U41G U78C] | 0.22
24 | UGACAGGGGGCCACAGCAGAAGCGUUCACGUCGCACCCCCUGUCAGAUUCAGGUGAAUCUGCGAAUUCUGCUGUAUAUCUC [A2G G36C U51A] | 0.26
25 | UGACAGGGGGCCACAGCAGAAGCGUUCACGUCGCACCCCCUGUCAGAUUCAGGUGAAUCUGCGAUUUCUGCUGUAUAUCUC [A2G G36C U51A A65U] | 0.06
26 | UGACAGGGGGCCACAGCAGAAGCGUUCACGUCGCAGCCCCUUUCAGAUUCUGGUGAAUCUGCGAAUUCUGCUGUUUAUCUC [A2G G42U A75U] | 0.57
27 | UGACAGGGGGCCACAGCAGAAGCGUUCACGUCGCAGCCCCUGUCACGUUCUGGUGAAUCUGCGAAAUAUGCCGUAUAUCUC [A2G G46C A47G U66A C68A U72C] | 0.16
28 | UGACAGGGGGCCACAGCAGAAGCGUUCACGUCGCAGCCCCUGUCAUAUUCUGGCGUAUCUGCGAAUUCUGCUGUAUAUCCC [A2G G46U U54C A56U U80C] | 0.18
29 | UGACAGGGGGCCACAGCAGAAGCGUUCACGUCGCAGCCCCUGUCAGAUUCUUGCGAAUCUGCGAAUUCCGCUGUAUUUCUC [A2G G52U U54C U69C A77U] | 0.38
30 | UGACAGGGGGCCACAGCAGAAGCGAUCACGUCGCAGCCCCUGUCUGAUUCAGGUGAAUCUGCGAAUUCUGCUGUAUACCUC [A2G U25A A45U U51A U78C] | 0.25
31 | UGACAGGGGGCCACAGCAGAAGCGAUCACGUCGCAGCUCCUGUCAGUUUCUGGUGAAUCUGCGAAUUCUGCUGUAUAUCUC [A2G U25A C38U A47U] | 0.22
32 | UGACAGGGGGCCACAGCAGAAGCGACCACGUCGCAGCCCCUGUCAGUUUCUGGUGAAUCUGCGAAUUCUGCUGUGUAUCUC [A2G U25A U26C A47U A75G] | 0.13
33 | UGACAGGGGGCCACAGCAGAAGCGCUCACGUCGCUGCCCCUGUCAGAUUCUGGUGAAUCUGCGGAUUCUGCUGUAUAUCUC [A2G U25C A35U A64G] | 0.24
34 | UGACAGGGGGCCACAGCAGAAGCGCUCACGUCGCAGCCCCUGUCUGAUUCUGGUGAAUCUGCGAAUUCUGCUGUAUAUCUC [A2G U25C A45U] | 0.1
